Assay results from the supplement of paper PMC10338343.
± gives the standard deviation. The full ranking holds about 5,500 sequences; the median of “pre-steady-state target cleavage rate” is about 0.1, and the highest 2% start at about 0.64. Only a part is listed here, and it is no random draw.

test system: MIWI (PIWIL1) piRISC loaded with piRNA #2 (30 nt); experiment: pre-steady-state target cleavage rate (min^-1); MIWI and MILI are mouse PIWI proteins and EfPiwi is from a freshwater sponge; tags in brackets are library labels; higher = faster piRNA-guided slicing of the target; details: guide: piRNA #2 5'p-UUAGGUAACCCAGUAGAUCCAGAGGAAUUC; auxiliary factor: 500 nM mouse GTSF1
Protocol: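 Cleave-'n-Seq: a library of target RNAs (target site embedded in constant flanks, ACAGCATTCCGCGTTAGTGATATCCG... 5' flank; DNA-blocked outside the site) at 0.1 nM was incubated with 1 nM active mouse MILI or MIWI piRISC (synthetic 5'-monophosphorylated piRNA guide) with or without 500 nM mouse GTSF1 at 33 °C for 1 min to 16 h. Uncleaved targets were sequenced and normalised to non-target controls, and the pooled three trials were fitted to a burst-and-steady-state model to give the pre-steady-state cleavage rate (min^-1; k3 is constrained to at most 1e-4). Sequence is the target site only; target names encode pairing extent (gX:gY) and contiguous / 1-mismatch / 2-mismatch / bulge geometry. Fits with R² ≤ 0 are excluded.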

| Sequence | pre-steady-state target cleavage rate |
| --- | --- |
| GAAUUCCUCUGGAUCUACAGGGUUACCUAA | 0.186 ± 0.024 |
| CUUAAGGACUGGAUCUACAGGGUUACCUUA | 0.0472 ± 0.011 |
| CAAUUCCUCUGGAUCUACUGGCUUACCUAA | 0.103 ± 0.019 |
| CUUAUCCUCUGGAUCUACUGGCUUAGCUAA | 0.00734 ± 0.004 |
| CUUAACCUCUCGAUCUACUGGGUUACGUAA | 0.551 ± 0.037 |
| CAAUACCUGUGGAUCUACUGGGUUACCUAA | 0.344 ± 0.04 |
| CUUAAGGAGAGGCUCUACUGGGUUACCUAA | 0.0146 ± 0.0025 |
| CUUUUCCACUGGAUCUAGUGGGUUACCUAA | 0.208 ± 0.02 |
| CUUAAGCUCUGGAUCUACUGGGUUACCAAA | 0.155 ± 0.025 |
| CAAUUCCUCUGGAUCUACUGGGAUACGUAA | 0.245 ± 0.07 |
| CUUAAGGAGAGGAUCUACUGGGUUAACUAA | 0.00944 ± 0.0055 |
| CUUAUCCUCUGGAUAUACUGGGUUACCUAA | 0.688 ± 0.052 |
| CUAUUCCUCUGGAUCUACUGGGAUACGUAA | 0.258 ± 0.044 |
| CAAUUCCUGUGGAACUACUGGGUUACCUAA | 0.261 ± 0.068 |
| CAAUUCCUCUGGAUCUACUGGGUUUCCUUA | 0.281 ± 0.067 |
| CUUAAGGAGAGGAUCUACUGGGUUGACCUAA | 0.00872 ± 0.005 |
| GAAUUCCUCUGGUUGUACUGGGUUACCUAA | 0.557 ± 0.032 |
| CUUAAGGUCUGGAUACUACUGGGUUACCUAA | 0.0967 ± 0.026 |
| CUUAAGCACUGGAACUACUGGGUUACCUAA | 0.326 ± 0.038 |
| CUUAAGGUGUGGAUCUACUGGGUUACCUAA | 0.216 ± 0.041 |

| Sequence | pre-steady-state target cleavage rate |
| --- | --- |
| CUUAACCUCUGGAUCUACUGGCAUACCUAA | 0.00495 ± 0.0029 |
| CUUAACCACUGGAUCUACUGGGAUACCUAA | 0.276 ± 0.026 |
| CUUUUCCUCUGGAUCUAGUGGGUUACGUAA | 0.228 ± 0.022 |
| CUUAACCUCUGGAUCUACUGGGUUGCCUAA | 0.197 ± 0.023 |
| CUUAAGCUCUGGAUCUACACCGUUACCUAA | 0.0395 ± 0.0086 |
| CUUUACCUCUGGAUCUACAGGGUUACCUAA | 0.182 ± 0.018 |
| CUUAAGCUCUCGAUGUACUGGGUUACCUAA | 0.509 ± 0.036 |
| CUAUUCCUCUGGUAGUACUGGGUUACCUAA | 0.232 ± 0.036 |
| CUUAACCUCUGGAACUACAGGGUUACCUAA | 0.254 ± 0.019 |
| CAAUUCCUCUGGAUCUAGUGGGUUUCCUAA | 0.133 ± 0.026 |
| CUUAUCGAGUGGAUCUACUGGGUUACCUAA | 0.228 ± 0.022 |
| GAAAUCCUCUGGAUCUACUGGGUUACCUAA | 0.249 ± 0.058 |
| CUUUUCCUCAGGAUCUAGUGGGUUACCUAA | 0.16 ± 0.025 |
| CAAUACCUCUGGAUCUACUGGGUUUCCUAA | 0.295 ± 0.047 |
| CAAUUCGUCUGGAUCAACUGGGUUACCUAA | 0.239 ± 0.041 |
| CUUAAGGUCUGGAUCUACUGGGCUACCUAA | 0.0794 ± 0.018 |
| CUUAUCCUCUGGAUCAACUGGGUUACCUAA | 0.342 ± 0.039 |
| CUUAAGCUCUGGAUCUAGUGGGUUACCUAA | 0.0522 ± 0.0082 |
| CUUAACCUGUGGAUCUACUGGGUUACCUAA | 0.37 ± 0.022 |
| CUUAUCCUCUCGAUCUACUGGGUUUCCUAA | 0.32 ± 0.042 |
